Source: PubChem BioAssay AID686979 (National Center for Advancing Translational Sciences (NCATS), 2013)
Out of some 420,000 compounds screened, about 50,000 (12%) were called active. Not shown: some 26% with an inconclusive outcome. Calls come from the whole dose curve; as a rule, active = well fitted inhibition curve with a large enough effect; inconclusive = small, poorly fitted or top-dose-only effect; inactive = flat fitted curve, though single readings scatter. The entries are a selection whose mix differs from that of the whole data set.

assay: qHTS for Inhibitors of human tyrosyl-DNA phosphodiesterase 1 (TDP1): qHTS in cells in presence of CPT; conditions: chicken DT40 Tdp1-/-;hTDP1 cells + 20 nM CPT, ATP luminescence, 48 h; series mostly up to 46.2 µM; activity change, negative = growth inhibition: at the top concentration; note: nearly all actives have a fitted effect of over 55% in size
From the text: Human tyrosyl-DNA phosphodiesterase 1 (TDP1) is a novel repair gene, and we propose to use it as a new target for anticancer drug development. TDP1 is not an essential protein, but under treatment with topoisomerase I poison (camptothecin: CPT), TDP1 works as a critical factor for cell survival. To directly identify novel TDP1 inhibitors active in a cellular environment, we have knocked-out the Tdp1 gene in chicken DT40 cells (Tdp1-/-) and generated a complemented counterpart cells that contains a stable transfection of the human TDP1 gene (Tdp1-/-;hTDP1 cells). For the primary screen, Tdp1-/-;hTDP1 cells will be exposed to small molecules in the presence or absence of CPT, and their growth kinetics will be evaluated after 48 hours by measuring ATP activity. […] The hit compounds will then be evaluated in the presence or absence of CPT using Tdp1-/- cells. […] In tertiary assays, biochemical gel-based assays will be used to assess whether the hit compounds specifically target TDP1. To this end, we have screened this cell line against the MLSMR in two primary screens. In one screen we add CPT and in the other we screen in the absence of CPT; this AID represents the screen where CPT was present. NIH Chemical Genomics Center [NCGC] NIH Molecular Libraries Probe Centers Network [MLPCN] MLPCN Grant: MH095538 Assay Submitter (PI): Yves Pommier, NCI
DT40-hTDP1 cells with 20 nM Camptothecin (add 20 microL of 1 mM CPT stock in 1 L of cell culture medium) were dispensed at 400 cells/5microL/well in tissue culture treated 1536-well white wall/solid bottom assay plates (Greiner Bio-One North America, NC, U.S.A.) using a Multidrop Combi 8 channel dispenser (Thermo Fisher, Waltham, MA, USA). 23 nL compounds and controls were transferred using the pin tool (Kalypsys, San Diego, CA, USA) to the assay plates. The assay plates were then incubated at 37 masculineC for a minimum 48 hr. Three microL of Cell Titer Glo solution was added to the plates and incubated at RT in dark for 30 min. Luminescence was read using ViewLux (Perkin Elmer) with 1 sec exposure slow speed, high gain and 2x binning.
% is set by controls: 0 for no effect and ±100 for the full control effect; potency is the fitted concentration of half-maximal effect.

Row | Compound | activity change, negative = growth inhibition | Potency
1 | Cc1ccccc1NC(=O)NCc1cccnc1 | inactive: 39% | –
2 | Cc1ccccc1-c1nc(CN2CCC(C(=O)NCCC3=CCCCC3)CC2)c(C)o1 | – | active: 18.4 µM
3 | COC(=O)[C@@H]1C[C@@H]2CC[C@@H](O)C[C@@H]2N1Cc1ccc(Cl)cc1 | inactive: -13.2% | –
4 | Cc1ccc(CNC(=O)c2ccc(Cn3c(=O)c4ccccc4n(CC(=O)Nc4ccc(C)cc4C)c3=O)cc2)cc1 | – | active: 16.4 µM
5 | COc1ccccc1N1CCN(C(=S)Nc2ccccc2)CC1 | inactive: -26.3% | –
6 | N[C@H](CSCc1ccccc1)C(=O)Nc1ccc([N+](=O)[O-])cc1 | inactive: -15.2% | –
7 | Cc1cc(C)cc(OCC(=O)NCCc2nc3ccccc3[nH]2)c1 | inactive: -17.8% | –
8 | CNc1ccc(S(=O)(=O)NC)cc1[N+](=O)[O-] | inactive: -10.5% | –
9 | Fc1cnc(Cl)nc1N1CCN(c2ccccc2)CC1 | inactive: 43% | –
10 | CC1CCCC(C)N1C(=O)COC(=O)c1cc(=O)[nH]c2ccccc12 (stereo not given) | inactive: 30.5% | –
11 | COc1ccc2[nH]cc(CC(N)C(=O)O)c2c1 (stereo not given) | inactive: -20.6% | –
12 | COc1ccc2c(c1)c(CC(=O)O)c(C)n2C(=O)c1ccc(Cl)cc1 | – | inactive
13 | Oc1cc(O)c2c(c1)O[C@H](c1ccc(O)c(O)c1)[C@H](O)C2 | – | inactive
14 | Cc1cc2ccccc2n2c(SCC(=O)Nc3ccc(S(=O)(=O)N4CCC(C)CC4)cc3)nnc12 | – | active: 29.1 µM
15 | CC(C)C[C@H]1CN(CCCC[C@@H]2CNC(=O)C(=O)N2Cc2ccccc2)C(=O)C(=O)N1CCc1ccccc1 | inactive: -3.39% | –
16 | COc1ccc(Nc2nc(C)cc(C)c2C#N)c(OC)c1 | inactive: 38.4% | –
17 | CC1(C)CCC(C)(C)NC(=S)N1 | inactive: 8.2% | –
18 | COc1ccc(-c2nn(C)c3sc(C(=O)Nc4cccc(F)c4)cc23)cc1OC | – | active: 14.6 µM
19 | C[C@](O)(C(=O)Nc1ccc(S(=O)(=O)c2ccccc2)cc1)C(F)(F)F | inactive: -3.92% | –
20 | CC(C)NCC(O)COc1ccccc1-n1cccc1 (stereo not given) | inactive: 4.56% | –
21 | COc1ccc(NC(=O)Cn2cnc3ccc(S(=O)(=O)N4CCC(C)CC4)cc3c2=O)cc1OC | – | active: 25.9 µM
22 | CCCc1c(-c2ccc(O)cc2)nn(-c2ccc(O)cc2)c1-c1ccc(O)cc1 | inactive: 4.76% | –
23 | CC(=O)N1CCCC1C(=O)O (stereo not given) | inactive: 2.07% | –
24 | CN1CCN(NC(=O)c2cccc(F)c2)CC1 | inactive: 38.1% | –
25 | Cc1ccc(C)c(N2CCN(CCCNC(=O)c3cnn(-c4ccccc4Cl)c3C3CCN(C(=O)OC(C)(C)C)CC3)CC2)c1 | – | active: 4.61 µM

Row | Compound | activity change, negative = growth inhibition | Potency
26 | CN(C)CCNC(=O)c1coc(=O)c(Br)c1 | – | active: 2.31 µM
27 | CCCCCc1ccc(-c2cn(Cc3ccc(C)cc3)nn2)cc1 | inactive: -7.01% | –
28 | O=S(=O)(Nc1cccc(-c2ccc(N3CCCCCC3)nn2)c1)c1cccc(F)c1 | inactive: -15.4% | –
29 | CCOC(=O)Cc1ccc(Nc2nc(NCCOC)nc3ccsc23)cc1 | – | active: 13 µM
30 | C/C=C(/C)C(=O)OC1Cc2c(ccc3ccc(=O)oc23)OC1(C)C (stereo not given) | inactive: 8.44% | –
31 | Cc1ccc(S(=O)(=O)NCCSc2nnnn2-c2ccccc2)cc1 | inactive: -21.9% | –
32 | Cc1cc(C(=O)COC(=O)c2ccc(O)cc2O)c(C)n1C(C)C | – | active: 18.4 µM
33 | C#CCNC(=O)C1=C[C@H](c2ccc(C#C)cc2)C[C@H](OCc2ccc(CO)cc2)O1 | inactive: -3.07% | –
34 | O=C(Nc1cccc(Cl)c1)c1csc([C@@H]2C[C@H](O)[C@@H](CO)O2)n1 | inactive: -21.5% | –
35 | COc1cccc(C2Nc3c(F)cc(Br)cc3C3C=CCC32)c1OC (stereo not given) | – | active: 16.4 µM
36 | O=C(c1cc(-c2cccc(Cl)c2)on1)N1CCCCCC1 | inactive: 2.7% | –
37 | CC(=O)C[C@H]1c2cc(C(F)(F)F)ccc2S(=O)(=O)N1Cc1ccccc1 | inactive: 0.704% | –
38 | O=C(NC1C=CS(=O)(=O)C1)c1ccccc1 (stereo not given) | inactive: 30.9% | –
39 | CCCn1c(SCC(=O)NCC2CCCO2)nc2c1c(=O)n(C)c(=O)n2C (stereo not given) | inactive: 2.74% | –
40 | CC12CCC(CC1=O)C2(C)C (stereo not given) | inactive: 7.14% | –
41 | C[C@H]1CN([C@@H](C)CO)C(=O)CCCn2cc(nn2)CO[C@@H]1CN(C)C(=O)C1CCCCC1 | inactive: 4.87% | –
42 | CC(C)Cc1nnc(NC(=O)C2CC(=O)N(Cc3ccccc3)C2)s1 (stereo not given) | inactive: 30.1% | –
43 | O=C(NCc1cccs1)C1CC1 | inactive: 44.7% | –
44 | CCOc1ccc(CNC(=O)Cn2c(=O)c3cccn3c3ccccc32)cc1 | inactive: -6.4% | –
45 | COc1[nH]c(/N=C/c2ccccc2)c(C#N)c1C#N | inactive: -26.9% | –
46 | Cc1ccc(NC(=O)CSc2nc3nc(C)c(Br)cc3[nH]2)cc1F | inactive: -7.15% | –
47 | CCCCSCCCNC(=O)c1cn(C)c2ccc(S(=O)(=O)N3CCCC3)cc2c1=O | inactive: -21.8% | –
48 | CCOC(=O)N1CCC(N2CCCC(C(=O)c3ccccc3OC)C2)CC1 (stereo not given) | inactive: 34% | –
49 | CCO[C@@H]1OC(C(=O)N2CCOCC2)=C[C@H](C)[C@H]1CCCO | inactive: -22.2% | –
50 | Cc1cc(C)n(CCNC(=O)c2cc(COc3ccc4ncccc4c3)on2)n1 | – | active: 20.6 µM
